Results as given in patent publication US20240188561A1, “ADDITIVES FOR ENHANCING THE PESTICIDAL EFFECTIVENESS OF PESTICIDAL MICROORGANISMS” (priority 2021, published 2024).

Assays:
Pythium = assay: Cucumber seed pots in Pythium inoculated soil, seedling emergence and vigor; conditions: 28 days, in words
Pseudomonas fluorescens = assay: Additive compatibility with microbial growth (growth slope by OD 620 nm); format: cell-based; conditions: additive 0.01-5 %, exposed 4 hours at 16° C., then tryptic soy broth 30° C., slope compared to 0% sample
Bacillus subtilis = assay: as above; format: cell-based; conditions: additive 0.01-5 %, exposed 4 hours at 16° C., then tryptic soy broth 30° C., slope compared to 0% sample
Bacillus firmus = assay: as above; format: cell-based; conditions: additive 0.01-5 %, exposed 4 hours at 16° C., then tryptic soy broth 30° C., slope compared to 0% sample
[1] = system: Bacillus amyloliquefaciens; assay: as above; format: cell-based; conditions: additive 0.01-5 %, exposed 4 hours at 16° C., then tryptic soy broth 30° C., slope compared to 0% sample
[2] = system: Gray Mold (Botrytis cinerea); assay: Spray trial on flowering strawberry plants, Gray Mold, marketable berries after storage; conditions: in words
Protocol: (§1) Five solutions were prepared as described in Table 7a. These solutions were sprayed on flowering strawberry plants showing no signs of Gray Mold (Botrytis cinerea). The bio-fungicide in the trial was Serifel® Biofungicide (Bacillus amyloliquefaciens sold by BASF Corporation). Three of the solutions included POE 10 Soybean Oil. Elevate® Fungicide (fenhexamid sold by BASF Corporation) was sprayed as the synthetic benchmark comparison.
Six applications were made at 7-day intervals to the same strawberry plants. After two weeks the plants were harvested of all berries. The berries were stored at room temperature for 3 days and then evaluated for Gray Mold. The same stored berries were evaluated again on day 5 of storage. At the end of each following week, berries were harvested, and the number of marketable berries evaluated at 3 days and 5 days after harvest.
as §1, with “8a.” for “7a.”, “PEG 400 diolate.” for “POE 10 Soybean Oil.”

CCCCCCCC/C=C\CCCCCCCC(=O)OC [ii-4, Oleic acid methyl ester]
Control of Pythium (higher emergence) when additive was added to BlightBan A506 Biofungicide treatment solutions (Pythium): improved control

C6-C10 fatty acid methyl ester [ii-1]
Influence of additive on microbial growth slope (compatibility), Pseudomonas fluorescens (Pseudomonas fluorescens): N | Influence of additive on microbial growth slope (compatibility), Bacillus subtilis (Bacillus subtilis): N | Influence of additive on microbial growth slope (compatibility), Bacillus firmus (Bacillus firmus): N | Influence of additive on microbial growth slope (compatibility), Bacillus amyloliquefaciens [1]: N | Control of Pythium (higher emergence) when additive was added to BlightBan A506 Biofungicide treatment solutions (Pythium): improved control

PEG 400 dioleate [v-3]
Control of Gray Mold (Higher %-Marketable Berries) when additive was added to Serifel Biofungicide spray solutions [2]: improved control | Control of Pythium (higher emergence) when additive was added to Subtilex NG Biofungicide treatment solutions (Pythium): improved control

Soya fatty acid methyl ester [ii-3]
Control of Pythium (higher emergence) when additive was added to BlightBan A506 Biofungicide treatment solutions (Pythium): improved control

Soybean Oil POE 10 [vi-1]
Control of Gray Mold (Higher %-Marketable Berries) when additive was added to Serifel Biofungicide spray solutions [2]: improved control
